Data on 29 molecules can be found in PubChem BioAssay AID1745853 (National Center for Advancing Translational Sciences (NCATS), 2022).

Common to all, as to assay: Primary Screen for Target Class Profiling of Small Molecule Inhibitors of Methyltransferases
Experiment [1] concerns the target Glycine N-methyltransferase (Homo sapiens) (UniProt Q14749). The following applies: purified enzyme, MTase-Glo SAH luminescence; measured here: GNMT inhibition; at 40 µM; stronger effect = lower value. The essentials: (§1)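 Each enzyme was assayed with SAM and its substrate. SAH formation detected by MTase-Glo luminescence; single-point 40 uM screen[…].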
The target of experiment [2] is Guanidinoacetate N-methyltransferase (Homo sapiens) (UniProt Q14353). The following applies: purified enzyme, MTase-Glo SAH luminescence; measured here: GAMT inhibition; at 40 µM; stronger effect = lower value. In outline:
as §1

In experiment [3] the target is Histamine N-methyltransferase (Homo sapiens) (UniProt P50135). Particulars: purified enzyme, MTase-Glo SAH luminescence; measured here: HNMT inhibition; at 40 µM; stronger effect = lower value. In outline: as §1
Experiment [4] deals with Nicotinamide N-methyltransferase (Homo sapiens) (UniProt P40261). The following applies: purified enzyme, MTase-Glo SAH luminescence; measured here: NNMT inhibition; at 40 µM; stronger effect = lower value. In outline:
as §1

In experiment [5] the target is Phenylethanolamine N-methyltransferase (Homo sapiens) (UniProt P11086). The following applies: purified enzyme, MTase-Glo SAH luminescence; measured here: PNMT inhibition; at 40 µM; stronger effect = lower value. In outline: as §1

Where “and” joins values, the source holds several entries; their conditions need not be identical. Equal values may be shown once. This is one part of the list. Further columns of the screen follow, without active or inactive calls.
% is set by controls: 0 for no effect and ±100 for the full control effect.

Regarding `O=C(O)Cc1nn(Cc2nc3cc(C(F)(F)F)ccc3s2)c(=O)c2nccnc12`, the activity change, negative = inhibition in experiment [1] is -7.31%; in experiment [2] it was -7.9%; in experiment [3], 10.6%; in experiment [4], -13.7%; in experiment [5], 1.63%.

As for `CC(C)OCCCn1c(=O)c2ccccc2n2c(=O)n(CC(=O)Nc3cccc(F)c3)nc12`, the activity change, negative = inhibition is 4.51% in experiment [1]; 1.97% in experiment [2]; 8.35% in experiment [3]; 3.29% in experiment [4]; 7.03% in experiment [5].

`CCc1ccccc1N1C(=O)N(Cc2cc(=O)n3ccccc3n2)c2ccccc2S1(=O)=O`: the activity change, negative = inhibition in experiment [2] is -4.25%; in experiment [4] it was -19.2%; in experiment [5], -3.04%.

On to `CC1=C(/C=C/C(C)=C\C=C\C(C)=C/C(=O)O)C(C)(C)CCC1`, for which the activity change, negative = inhibition in experiment [1] was -30.4%; in experiment [3], -1.85%.

For `COCC(=O)N1CCN(C(C)=O)C[C@@H]1C(=O)N[C@H](C)C(=O)OC`, the activity change, negative = inhibition is -6.47% in experiment [1]; -8.1% in experiment [2]; -3.13% in experiment [3]; -11.8% in experiment [4]; -4.55% in experiment [5].

Take `CN1C(=O)c2cc(C(=O)NCc3ccccn3)nn2CC1(C)C(=O)NCc1ccccc1` (stereo not given): the activity change, negative = inhibition was 4.55% in experiment [1]; 4.15% in experiment [2]; 4.07% in experiment [3]; 0.027% in experiment [4]; 1.31% in experiment [5].

`CCCn1c(=O)c2ccc(C(=O)NC3CCCC3)cc2n2c(=O)n(CC(=O)Nc3cc(C)cc(C)c3)nc12`: the activity change, negative = inhibition in experiment [1] was found to be 5.31%; in experiment [2], 0.547%; in experiment [3] it was 7.17%; in experiment [4], 6.5%; in experiment [5] it was 7.28%.

`COC(=O)c1ncn2c1C(=O)N(CCCc1ccccc1)C(C)(C(=O)NC1CCCCCC1)C2` (stereo not given): the activity change, negative = inhibition in experiment [1] was determined as 6.75%; in experiment [2] it was 1.16%; in experiment [3], 4.1%; in experiment [4], 7.69%; in experiment [5], 4.61%.

As to `CC(CNC(=O)CCn1ccc2cc(S(=O)(=O)N3CCCCC3)ccc21)c1ccccc1` (stereo not given), the activity change, negative = inhibition in experiment [1] is -2.86%; in experiment [2], 7.08%; in experiment [3], -8.25%; in experiment [4], 1.46%; in experiment [5] it was 0.55%.

With `CC(=O)N1CCCC1c1nc(C2CN(Cc3cc(F)c(F)cc3F)C2)no1` (stereo not given), the activity change, negative = inhibition is -4.38% in experiment [1]; -0.303% in experiment [2]; -2.51% in experiment [3]; -4.14% in experiment [4]; -7.36% in experiment [5].

As for `CC1(C(=O)NC2CCCCCC2)Cn2nc(-c3ccco3)cc2C(=O)N1CCCc1ccccc1` (stereo not given), the activity change, negative = inhibition in experiment [1] was -2.85%; in experiment [2], 3.74%; in experiment [3], -0.101%; in experiment [4], -1.78%; in experiment [5], -6.19%.

Turning to `CN1CCC(CNc2ccc3ncc(-c4cccc(OC(F)(F)F)c4)n3n2)CC1`, the activity change, negative = inhibition in experiment [1] is -69.1%; in experiment [2], -39.9%; in experiment [3], -80.1%; in experiment [4], -66.1%; in experiment [5], -68.8%.

Regarding `COc1ccc(-c2nc(C)nc3c2CCN([S+](=O)([O-])c2cccc(OC)c2)CC3)cc1`, the activity change, negative = inhibition in experiment [1] was -11.7%; in experiment [2] it was -5.89%; in experiment [3], -0.755%; in experiment [4] it was -12.7%; in experiment [5] it was -5.76%.

In the case of `Cc1ccc(S(=O)(=O)N2CCC3(CC2)SCC(=O)N3Cc2ccco2)cc1`, the activity change, negative = inhibition was -13.3% in experiment [1]; -5.31% in experiment [2]; -5.55% in experiment [3]; -7.33% in experiment [4]; -3.65% in experiment [5].

`COc1ccc(NC(=O)Cn2nc3n(CCC(C)C)c(=O)c4ccccc4n3c2=O)cc1OC`: the activity change, negative = inhibition is -4.39% in experiment [1]; 0.553% in experiment [2]; 4.68% in experiment [3]; -4.03% in experiment [4]; -0.905% in experiment [5].

Take `COCCCN1C(=O)c2ccccc2CC1(C)C(=O)NC1CCCCCCC1` (stereo not given): the activity change, negative = inhibition in experiment [1] is -1.37%; in experiment [2] it was 0.35%; in experiment [3], 10.3%; in experiment [4], 6.45%; in experiment [5], 5.07%.

On to `COC(=O)COc1ccc2c(=O)c(-c3ccc4c(c3)OCCO4)coc2c1`, for which the activity change, negative = inhibition in experiment [1] was -4.91%; in experiment [2], -0.08%; in experiment [3], -4.57%; in experiment [4] it was -3.17%; in experiment [5], -4.17%.

For `C[C@@H]1O[C@@H](O[C@@H]2[C@@H](O)[C@@H](O)[C@H](O[C@@H]3[C@@H](O)[C@@H](O[C@]4(CO)O[C@H](CO)[C@@H](O)[C@@H]4OC(=O)/C=C/c4ccc(O)cc4)O[C@H](CO)[C@H]3OC(=O)/C=C/c3ccc(O)cc3)O[C@H]2C)[C@H](O)[C@H](O)[C@H]1O`, the activity change, negative = inhibition in experiment [1] is 0%; in experiment [2], 0.49%; in experiment [3], -0.641%; in experiment [4], -11.5%; in experiment [5], 2.61%.

Consider `CC(C)CCn1c(=O)c2ccccc2n2c(SCC(=O)Nc3ccc(C(C)C)cc3)nnc12`, for which the activity change, negative = inhibition in experiment [1] is 2.62%; in experiment [2], 0.393%; in experiment [3] it was 10.7%; in experiment [4], -8.24%; in experiment [5] it was 5.14%.

For the molecule `O=C(c1ccoc1)N1CC[C@@H](c2ccc3ccccc3c2)[C@H](O)C1`, the activity change, negative = inhibition is -5% in experiment [1]; -2.06% in experiment [2]; 0.314% in experiment [3]; -10.3% in experiment [4]; -4.32% in experiment [5].

`Cn1c(=O)n(C)c2cc(NS(=O)(=O)c3ccc(N4CCCC4=O)cc3)ccc21`: the activity change, negative = inhibition in experiment [1] was -1.97%; in experiment [2] it was -4.29%; in experiment [3] it was -13.1%; in experiment [4] it was -6.97%; in experiment [5] it was -17.6%.

`C[C@H](NC(=O)CCc1nc2ccccc2c(=O)[nH]1)c1ccccc1`: the activity change, negative = inhibition in experiment [1] was -2.34% and 1.69%; in experiment [2], -4.36% and -7.12%; in experiment [3], 0.186% and 10.3%; in experiment [4], -17.6% and 9.31% and -18.1%; in experiment [5], -4.69% and 16.3% and -3.3%.

Turning to `CC1(C(=O)NC2CCCCC2)Cn2nc(-c3ccco3)cc2C(=O)N1CCc1ccc(Cl)cc1` (stereo not given), the activity change, negative = inhibition was -0.215% in experiment [1]; 3.41% in experiment [2]; 2.72% in experiment [3]; -4.98% in experiment [4]; 2.15% in experiment [5].

As for `CC[C@H]1OC(=O)[C@H](C)[C@@H](OC2C[C@@](C)(OC)[C@@H](O)[C@H](C)O2)[C@H](C)[C@@H](OC2O[C@H](C)C[C@H](NC)[C@H]2O)[C@](C)(O)C[C@@H](C)CN(C)[C@H](C)[C@@H](O)[C@]1(C)O` (stereo not given in full), the activity change, negative = inhibition in experiment [1] was -2.34%; in experiment [2], -3.3%; in experiment [3] it was 0.608%; in experiment [4] it was -13.8%; in experiment [5] it was -5.13%.

Take `CC(=O)Oc1c(-c2ccc(NC(=O)c3ccco3)cc2)c(-c2cccc(F)c2)nn1-c1ccc(C)cc1`: the activity change, negative = inhibition in experiment [1] was -7.31%; in experiment [2], -2.33%; in experiment [3] it was -0.365%; in experiment [4], -6.42%; in experiment [5], -2.47%.

For `CCCS(=O)(=O)N1CCC(N2C(=O)[C@H](OCCOC)[C@@H]2c2ccncc2)CC1`, the activity change, negative = inhibition in experiment [1] is -2.14%; in experiment [2], -3.29%; in experiment [3], -1.98%; in experiment [4], -5.25%; in experiment [5], 2.1%.

On to `CC1C(OC(=O)c2ccccc2)C(O)C2C(C(=O)O)=COC(OC3OC(CO)C(O)C(O)C3O)C12` (stereo not given), for which the activity change, negative = inhibition was 5.44% in experiment [1]; 2.96% in experiment [2]; 9.7% in experiment [3]; -7.51% in experiment [4]; -2.55% in experiment [5].

With `O=C(O)CC1CCC(c2ccc(NC(=O)c3nnc(Nc4ccc(F)c(F)c4)o3)cc2)CC1` (stereo not given), the activity change, negative = inhibition is -13.4% in experiment [1]; 6.23% in experiment [2]; 9.6% in experiment [3]; -13.6% in experiment [4]; 2.21% in experiment [5].

As for `Cc1cccc(OCCc2noc(C3CCN(C(=O)NC4CCCCC4)C3)n2)c1` (stereo not given), the activity change, negative = inhibition in experiment [1] is -2.27%; in experiment [2], 0.619%; in experiment [3], -0.648%; in experiment [4], -8.44%; in experiment [5], 4.46%.
